Data on 22 molecules can be found in publication PMC12136788.

Some of the results follow.

The labels stand for the following.
T1: UNK ZnF1-6 (called full-length) (human, UniProt Q9C0B0 30-357)
T1 sequence: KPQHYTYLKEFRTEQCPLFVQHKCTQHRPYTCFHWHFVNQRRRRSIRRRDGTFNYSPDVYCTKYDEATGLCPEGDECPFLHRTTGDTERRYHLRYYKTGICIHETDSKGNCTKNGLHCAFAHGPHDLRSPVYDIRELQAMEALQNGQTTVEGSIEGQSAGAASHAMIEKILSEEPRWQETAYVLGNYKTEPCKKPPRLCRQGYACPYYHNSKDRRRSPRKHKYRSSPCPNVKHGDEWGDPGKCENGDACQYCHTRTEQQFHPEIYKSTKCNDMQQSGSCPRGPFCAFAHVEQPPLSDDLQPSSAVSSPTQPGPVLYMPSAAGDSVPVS

B1: chr5:157162449:157163658:-|CDS|ENSG00000170613|control|control|control (ssRNA)
RNA: GGGAGUUCUACAGUCCGACGAUCGGUCACAUCACAUGACAGAGAGGUAGAUAUCGUGGCUAAGAUGGUGGAGAAGCAAAACAUAGAGGCCAAAGUGGAGAAAGCCCAGGGUGGCCAGGAGCUGGAGAUGAUCAGUGGCACUAUCAACAGAGGAUUGAGCAUCA
B2: chr22:27980698:27980799:-|3pUTR|ENSG00000100154|unk|FALSE|unique (ssRNA)
RNA: GGGAGUUCUACAGUCCGACGAUCUAACCAUUAAUUUAUUUUAUAAAGAAAGGAAAUGCUGAAAGUCGUAUUAGUACUGAGUUUAGUUGGAGAAUUUAGAUAAGUAAGUAUCUUUUAGGUAAUUCUAAAAUUAAAAUCCUACCCCAACAGAGGAUUGAGCAUCA
B3: chr12:95077336:95077437:-|3pUTR|ENSG00000180263|msi1|total|mutant (ssRNA)
RNA: GGGAGUUCUACAGUCCGACGAUCUCCUCAUUGACCCAUCCGCAUCUCUGUUUAUCCAAGACUUCUCUGUGACCGCUGACCCUCCGUCUUUCUCUCCCCUAUUCCUCCAGACCCGAUCCUGUCUCCUUCCUGCAGCCCCGACACCAACAGAGGAUUGAGCAUCA
B4: chr1:9850293:9850394:-|3pUTR|ENSG00000178585|unk|FALSE|unique (ssRNA)
RNA: GGGAGUUCUACAGUCCGACGAUCCGGUAUCUGGCUUCCCUGGAAGCUCUCCGAGCUCUGGUGCUUUAGUUAGGUCAUUUUUUUAGAAAUGUGAAGAGGUCUGAUUGGCUGCUUAAACUGGAAAGGAUCUGUGAUUGGCUGGUUCAACAGAGGAUUGAGCAUCA
B5: chr5:38883864:38883977:+|CDS|ENSG00000145623|unk|FALSE|unique (ssRNA)
RNA: GGGAGUUCUACAGUCCGACGAUCGUUUUCCCUAAAGAUAAGCUGGUGGAAGAAGGCACCAAUGUUACCAUUUGUUACGUUUCUAGGAACAUUCAAAAUAAUGUAUCCUGUUAUUUGGAAGGGAAACAGAUUCAUGGAGAACAACAACAGAGGAUUGAGCAUCA
B6: ENSG00000124766:be:win_3501|3pUTR|ENSG00000124766|bound_else_gene|NA|bound_elsewhere_windowed (ssRNA)
RNA: GGGAGUUCUACAGUCCGACGAUCAACUUGUAAACCACAUCUUUUUUGCACUUUUUUUAUAAGCAAAAACGUGCCGUUUAAACCACUGGAUCUAUCUAAAUGCCGAUUUGAGUUCGCGACACUAUGUACUGCGUUUUUCAUUCUCAACAGAGGAUUGAGCAUCA
B7: ENSG00000136451:be:win_3351|3pUTR|ENSG00000136451|bound_else_gene|NA|bound_elsewhere_windowed (ssRNA)
RNA: GGGAGUUCUACAGUCCGACGAUCGAAGGCAACACAUUCCUACACUUUUAAUGUAUAUGUUUGUUAUAAUGUCCAUGUAAACAUGCCCUAUGUUUGUGCCUUUUAAUUAGUUUGUCUCAAUAAACAAAAUGUAGAGAAAAAUAUCAACAGAGGAUUGAGCAUCA
B8: chr4:140442261:140443444:-|three_prime_utr|ENSG00000205301|control|control|control (ssRNA)
RNA: GGGAGUUCUACAGUCCGACGAUCCUCUGUAAUACCUGGAACCUCAGAUAACCUUGAUAUCUAAUGGCAUGUUUCAGAAAUUGUAGUAAUGAAAAUACAUAAUUAUCUAGCAGAUAAGUAAACAAUGCAUAAACUAGUAGACUUCAACAGAGGAUUGAGCAUCA
B9: chr17:21001410:21001511:-|3pUTR|ENSG00000124422|msi1_unk|FALSE|overlapping (ssRNA)
RNA: GGGAGUUCUACAGUCCGACGAUCUAGUACAACUUUUAGACACAGAAAUCUGAAUGACAUAUAUUGUUCUGUGUCAAGAAACUUAGAUUUUUUUUUUAACUAUUUAAAAACGUGAAACCUAUUCUUAGCUCACAGGCCAUGGAGCAACAGAGGAUUGAGCAUCA
B10: chr5:37007335:37007444:+|CDS|ENSG00000164190|unk|FALSE|unique (ssRNA)
RNA: GGGAGUUCUACAGUCCGACGAUCAGGCUUAUUAAGUUCAAAAGCAAAACGGGCUAAAUGUUCUACCCAUAAGCAGAGAGUAAUAGUAAUGCUUUAUAACAAAGUUUGUGACAUUGUUAGCAGCUUAUCAGAAUUGCUAGAGAUCAACAGAGGAUUGAGCAUCA
B11: ENSG00000198589:be:win_9401|3pUTR|ENSG00000198589|bound_else_gene|NA|bound_elsewhere_windowed (ssRNA)
RNA: GGGAGUUCUACAGUCCGACGAUCUAGAGGCUACCGGGUGCUGUAUUCAGCAACACCUGUUUUACUAUUUGUUAUUAAACUAUCAUCUCCACCUUCCUUUUGAUUAGCAAUUUGUACUAAGAAACGAAACAAUGUUAUUUGGUGCAACAGAGGAUUGAGCAUCA
B12: chr12:98549999:98550103:+|3pUTR|ENSG00000120802|unk|FALSE|unique (ssRNA)
RNA: GGGAGUUCUACAGUCCGACGAUCUGUUUCCCAUACUGUUUUCAGCCUUUUGUUUAUAAUUAGAAAUUGUGAGAAGCUUCAUUUAGUGUUUAAAAAUGUGGGGAGAUAAAUCAGACUUAACAUGUAUGUAAGAUCAAUUCACUUCAACAGAGGAUUGAGCAUCA
B13: chr10:87753454:87753555:-|3pUTR|ENSG00000138138|msi1|total|mutant (ssRNA)
RNA: GGGAGUUCUACAGUCCGACGAUCCGUUUAAUGUGAAUUAUAUGUGAAUUUUUUUCAAAAUUUUACUAACCAGAAUUCUGUUACCGGCACCUAACCACGCAGCAUGAGGAAAACGGCACAACACAAUCUUGAGGUGCCUUCUGACAACAGAGGAUUGAGCAUCA
B14: chr2:65312585:65312700:-|3pUTR|ENSG00000198369|unk|FALSE|unique (ssRNA)
RNA: GGGAGUUCUACAGUCCGACGAUCUGGACCAGGGCUAGAAUGGGGAUUUCAGGUUUCUAUGAGCCUCCCCAUUACCCCUAAAGUAGAACAUUUUUUAAAUUGUGUUGCCACCACUUCUAAAAAUUUAGCAAUAUUAGAAUAGGACAACAGAGGAUUGAGCAUCA
B15: ENSG00000198589:be:win_6101|CDS|ENSG00000198589|bound_else_gene|NA|bound_elsewhere_windowed (ssRNA)
RNA: GGGAGUUCUACAGUCCGACGAUCUAGGAAAUCAGAACUCAGAAAACGAGAUCCUCCUGGAAGGCGAUGAUGAUACUCUGUCAUCCGUGGAUGAGAAAGAUUUAGAGAAUCUUGCCGGUCCUGUUAGCCUGAGCACACCAGCUCCAACAGAGGAUUGAGCAUCA
B16: chr10:33178043:33178144:-|3pUTR|ENSG00000099250|msi1|total|mutant (ssRNA)
RNA: GGGAGUUCUACAGUCCGACGAUCAAAUUGGAUUGAGAAUGCCUUUUGUUUCCAGGAAAAUAUUGAUCACCAUGAAAGAAGAACCGUUUUUUGUCCCCAGAGACAUUCAUUCCGUUGAUAUAAUCCUACCAGAAGGAAAGCACUCAACAGAGGAUUGAGCAUCA
B17: chr6:4943581:4943691:+|CDS|ENSG00000153046|unk|FALSE|bound_elsewhere (ssRNA)
RNA: GGGAGUUCUACAGUCCGACGAUCUACUUUCAUUCAAUUUAAGAAGCCCAUUAUUGUAGCAGUCAAUGGCCCAGCCAUUGGUCUAGGAGCAUCUAUAUUGCCUCUUUGCGAUGUGGUUUGGGCUAAUGAAAAGGCUUGGUUUCACAACAGAGGAUUGAGCAUCA
B18: chr19:6534681:6534787:+|CDS|ENSG00000125657|unk|total|mutant (ssRNA)
RNA: GGGAGUUCUACAGUCCGACGAUCAGAGGACACGAAGGAGCUGGUGGUGGCCAAGGCUGGAGUCUACUAUGUCUUCUUUCAACCCGAGCUGCGGCGCGUGGUGGCCGGCGAGGGCUCAGGCUCCGUUUCACUUGCGCUGCACCUCAACAGAGGAUUGAGCAUCA
B19: chr16:22286016:22286117:+|3pUTR|ENSG00000103319|msi1|total|mutant (ssRNA)
RNA: GGGAGUUCUACAGUCCGACGAUCCUGAGCCCAGCCAAGACUUCAGUGUUGACUGCUUUGGAGGCACAAACCCAUGCAAGCGUCCGUUCCAAAGUUCAGUGUGUACCCUUAAAUGAACAAUGAAGCAGGUAAAAUUACCCUUGACAACAGAGGAUUGAGCAUCA
B20: chr10:62095068:62095169:+|3pUTR|ENSG00000150347|msi1|total|mutant (ssRNA)
RNA: GGGAGUUCUACAGUCCGACGAUCCCAUUUGCUUCAAUUAAUUAUUUACCUUCCUGUGGAAUAAUAUAUAUAUAUAUAUUUAACCGAACCACCGACCGACCCGCCGAAUUCCGAUUAUAAAUGUGUGAGUGCAGAUUAUCCUGCCAACAGAGGAUUGAGCAUCA
B21: chr13:49912701:49915062:-|three_prime_utr|ENSG00000123178|control|control|control (ssRNA)
RNA: GGGAGUUCUACAGUCCGACGAUCACUUGUAUUUCUGCACUGUUAAAAAAUGUUCAUCAUUUAAUAAAACUUUACCUGGCCUAUAGAUGAAAAUAUAUUCUUAAAAAUAUGCUUGUUGAUGCUGUCUAAGGAACCAAUGUAUUCCAACAGAGGAUUGAGCAUCA
B22: chr20:3864521:3864622:+|CDS|ENSG00000088888|msi1|FALSE|bound_elsewhere (ssRNA)
RNA: GGGAGUUCUACAGUCCGACGAUCGCCCUGAAAGUGCCUGCCAACCCAGCAUCUGUCAGCACAGUGCCCUCCAAGUUGCCAACUAGCUCAAAGCCCCCUGGUGCAGUGCCUUCUAAUGCGCUCACCAAUCCAGCACCAUCCAAACAACAGAGGAUUGAGCAUCA

The test has as its target T1, UNK ZnF1-6 (called full-length). As to the kind of experiment: nsRBNS (natural sequence RNA bind-n-seq); RBNS binding buffer (assumed for nsRBNS): 25 mM Tris pH 7.5, 150 mM KCl, 3 mM MgCl2, 0.01% Triton X-100, 500 ug/ml BSA, 20 U/ml SUPERase-In, 4 C; UNK is unkempt and MSI1 is Musashi-1; names of the RNAs are library labels; protein concentration not given here; high values mean tight binding.
Consider B1, for which the binding signal turned out to be 0.967 enrichment R.

Turning to B2, the binding signal was 3.49 enrichment R.

B3 gave a binding signal of 1.01 enrichment R.

B4 gave a binding signal of 5.47 enrichment R.

The molecule B5 returned a binding signal of 0.334 enrichment R.

Consider B6, for which the binding signal turned out to be 0.497 enrichment R.

In turn, B7 registered a binding signal of 2.53 enrichment R.

In turn, B8 displayed a binding signal of 1.45 enrichment R.

With B9, the binding signal came out at 24.9 enrichment R.

B10 yielded a binding signal of 0.607 enrichment R.

On to B11, for which the binding signal was found to be 1.19 enrichment R.

The molecule B12 displayed a binding signal of 6.12 enrichment R.

In turn, B13 displayed a binding signal of 0.627 enrichment R.

As to B14, the binding signal was determined as 13.9 enrichment R.

Molecule B15 gave a binding signal of 0.619 enrichment R.

The molecule B16 gave a binding signal of 0.305 enrichment R.

Molecule B17 displayed a binding signal of 0.53 enrichment R.

The molecule B18 displayed a binding signal of 1.25 enrichment R.

As for B19, the binding signal is 0.466 enrichment R.

The molecule B20 registered a binding signal of 2.12 enrichment R.

In turn, B21 showed a binding signal of 1.76 enrichment R.

Molecule B22 gave a binding signal of 0.799 enrichment R.
